Laboratory results published in patent US20260137822A1 (ABDERA THERAPEUTICS, published 2026).

T1: mouse DLL3 (mouse, UniProt O88516 25-477, limits assumed)
T1 construct: recombinant antigen on optically encoded beads; also called mDLL3
T1 sequence (looked up): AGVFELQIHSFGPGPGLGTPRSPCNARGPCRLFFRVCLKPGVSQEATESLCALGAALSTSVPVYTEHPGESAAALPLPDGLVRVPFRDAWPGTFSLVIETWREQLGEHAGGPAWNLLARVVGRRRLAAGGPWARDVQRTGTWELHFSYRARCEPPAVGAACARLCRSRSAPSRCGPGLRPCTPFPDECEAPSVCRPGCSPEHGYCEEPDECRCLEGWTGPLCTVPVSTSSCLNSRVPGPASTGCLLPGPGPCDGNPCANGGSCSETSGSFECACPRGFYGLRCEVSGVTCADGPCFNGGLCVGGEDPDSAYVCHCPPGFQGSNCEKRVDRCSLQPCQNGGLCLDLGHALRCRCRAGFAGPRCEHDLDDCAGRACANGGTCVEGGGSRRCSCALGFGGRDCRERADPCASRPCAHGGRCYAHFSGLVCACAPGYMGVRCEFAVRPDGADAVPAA

T2: human DLL3 on cells (HEK293T cells expressing human DLL3; SHP-77 cells) (human, UniProt Q9NYJ7 27-618)
T2 construct: whole, on cells; also called HEK-DLL3
T2 sequence (looked up): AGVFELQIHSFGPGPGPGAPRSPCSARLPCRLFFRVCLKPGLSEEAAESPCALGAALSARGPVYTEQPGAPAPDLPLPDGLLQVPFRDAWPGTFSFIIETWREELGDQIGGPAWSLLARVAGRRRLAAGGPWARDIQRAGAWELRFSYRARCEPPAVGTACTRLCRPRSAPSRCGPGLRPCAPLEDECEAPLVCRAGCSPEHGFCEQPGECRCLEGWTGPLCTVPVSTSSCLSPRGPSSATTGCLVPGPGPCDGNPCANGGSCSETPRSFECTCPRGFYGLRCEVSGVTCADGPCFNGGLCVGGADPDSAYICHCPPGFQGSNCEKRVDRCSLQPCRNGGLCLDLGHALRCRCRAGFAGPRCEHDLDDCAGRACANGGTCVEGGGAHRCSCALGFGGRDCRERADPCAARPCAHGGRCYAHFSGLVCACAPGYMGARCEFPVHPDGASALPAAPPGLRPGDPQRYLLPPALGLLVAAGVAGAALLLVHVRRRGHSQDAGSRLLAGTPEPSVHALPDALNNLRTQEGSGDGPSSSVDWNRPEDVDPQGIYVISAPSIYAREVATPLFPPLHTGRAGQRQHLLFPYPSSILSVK

T3: human DLL3 (recombinant antigen) (human, UniProt Q9NYJ7 27-492, limits assumed)
T3 construct: also called hDLL3
T3 sequence (looked up): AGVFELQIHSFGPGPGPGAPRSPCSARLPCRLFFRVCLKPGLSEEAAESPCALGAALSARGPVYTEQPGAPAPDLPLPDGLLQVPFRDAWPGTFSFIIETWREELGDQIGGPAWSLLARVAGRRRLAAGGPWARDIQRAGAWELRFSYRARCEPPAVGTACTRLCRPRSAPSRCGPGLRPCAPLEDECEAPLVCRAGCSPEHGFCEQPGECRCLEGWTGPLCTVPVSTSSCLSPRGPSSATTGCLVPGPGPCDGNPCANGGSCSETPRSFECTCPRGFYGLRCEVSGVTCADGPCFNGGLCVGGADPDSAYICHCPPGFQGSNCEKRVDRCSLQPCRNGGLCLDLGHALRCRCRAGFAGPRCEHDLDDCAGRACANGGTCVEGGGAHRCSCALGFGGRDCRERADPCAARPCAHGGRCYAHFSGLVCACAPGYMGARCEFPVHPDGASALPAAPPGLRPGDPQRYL

B1: Clone ID 186 VHH-Fc (Fc fusion)
chain: QVQVVESGGGLVQPGGSLTLSCAASGFDFSTYTVNWYRQAPGKEREKVARISSTGTTTNYANSAKGRFTLSRDNAKNRVYLQMNNLKPEDTAVYFCNFERFDSNYWGQGTQVTVSS[letters of human IgG1 Fc with C220S (EU numbers) omitted]
notes: camelid VHH on human IgG1 Fc (VHH-Fc); also called 186-H
B2: Clone ID 126 VHH-Fc (Fc fusion)
chain: QVQLVESGGGMVQPGGSLRLSCAASGITFSMYSMSWYRQPPGKQRELVAATTTFGSTNYADSVKGRFTISRDNAKNTVYLQMNSLKPEDTAVYLCNARFTSEEYWGQGTQVTVSS[letters of human IgG1 Fc with C220S (EU numbers) omitted]
notes: camelid VHH on human IgG1 Fc (VHH-Fc)
B3: Clone 186 VHH-Fc (wildtype Fc/modified hinge) (Fc fusion)
chain: B1 chain
notes: also called 186-H
B4: Clone 126 VHH-Fc (wildtype Fc/modified hinge) (Fc fusion)
chain: B2 chain
B5: Clone 24 VHH-Fc (wildtype Fc/modified hinge) (Fc fusion)
chain: QVQYVESGGGLVQPGGSLRLSCAASGFTFSSYRINWYRQPPGKGRELVGSITDTGSTNYADSVKGRFTISRDNAKNTVYLQMSSLKPEDTAVYYCRAPTIAAYWGQGTQVTVSS[letters of human IgG1 Fc with C220S (EU numbers) omitted]
notes: also called 24-H
B6: Clone 100 VHH-Fc (wildtype Fc/modified hinge) (Fc fusion)
chain: QVQLVESGGGSVQPGGSLRLSCAASGIVFNSDVMGWYRQVPGKPRELVATITGGGSTNYATSVKGRFTISRDNAKNTVYLQMNSLRPEDTAVYYCNGRRGDSMLAFWAQGTQVTVSS[letters of human IgG1 Fc with C220S (EU numbers) omitted]
notes: also called 100-H
B7: Clone 107 VHH-Fc (wildtype Fc/modified hinge) (Fc fusion)
chain: QVQLVESGGGLVQAGDSLRLSCVASDRTFSSYAVGWFRQAPGKEREFVAAISWNGGRTLYTDSVTGRFTISRDNAKSTVYLQMNGLKPEDTAVYYCAARPAAPTRRLEYDYWGQGTQVTVSS[letters of human IgG1 Fc with C220S (EU numbers) omitted]
B8: Anti-FOLR1x4 GGSx3 (monospecific tetravalent VHH-VHH-Fc) (antibody)
chain: QVQLVESGGGLVQPGGSLRLSCAASGFTVSNSVMAWYRQTPGNEREFVAIINSIGITNYADSVKGRFTISRDNSKNTLYLQMNSLRAEDTAVYVCNRNFDRIYWGQGTLVTVSSGGSGGSGGSQVQLVESGGGLVQPGGSLRLSCAASGFTVSNSVMAWYRQTPGNEREFVAIINSIGITNYADSVKGRFTISRDNSKNTLYLQMNSLRAEDTAVYVCNRNFDRIYWGQGTLVTVSS[letters of human IgG1 Fc with C220S (EU numbers) omitted]
B9: Anti-FOLR1x4 GGGGSx3 (monospecific tetravalent VHH-VHH-Fc) (antibody)
chain: QVQLVESGGGLVQPGGSLRLSCAASGFTVSNSVMAWYRQTPGNEREFVAIINSIGITNYADSVKGRFTISRDNSKNTLYLQMNSLRAEDTAVYVCNRNFDRIYWGQGTLVTVSSGGGGSGGGGSGGGGSQVQLVESGGGLVQPGGSLRLSCAASGFTVSNSVMAWYRQTPGNEREFVAIINSIGITNYADSVKGRFTISRDNSKNTLYLQMNSLRAEDTAVYVCNRNFDRIYWGQGTLVTVSS[letters of human IgG1 Fc with C220S (EU numbers) omitted]
B10: Anti-FOLR1x4 GGSx4 (monospecific tetravalent VHH-VHH-Fc) (antibody)
chain: QVQLVESGGGLVQPGGSLRLSCAASGFTVSNSVMAWYRQTPGNEREFVAIINSIGITNYADSVKGRFTISRDNSKNTLYLQMNSLRAEDTAVYVCNRNFDRIYWGQGTLVTVSSGGSGGSGGSGGSQVQLVESGGGLVQPGGSLRLSCAASGFTVSNSVMAWYRQTPGNEREFVAIINSIGITNYADSVKGRFTISRDNSKNTLYLQMNSLRAEDTAVYVCNRNFDRIYWGQGTLVTVSS[letters of human IgG1 Fc with C220S (EU numbers) omitted]

Target: T1, mouse DLL3
Test: initial screening, bead-based binding assay (flow cytometry)

binding result	Binder
no binding	B1
no binding	B2

Target: T2, human DLL3 on cells (HEK293T cells …)
Test: flow cytometry on SHP-77 cells (endogenous DLL3), WT-Fc format

EC50	Binder
0.475 nM	B3
1.07 nM	B4
1.99 nM	B5
2.59 nM	B6

Target: T3, human DLL3 (recombinant antigen)
Test: SPR (Carterra LSA), VHH-Fc captured on anti-human Fc, hDLL3 as analyte, 1:1 fit

Kd	koff	kon	Binder
1.27 nM	0.000379 s⁻¹	300000 M⁻¹ s⁻¹	B3
4.83 nM	0.000442 s⁻¹	91500 M⁻¹ s⁻¹	B7
0.42 nM	0.000221 s⁻¹	523000 M⁻¹ s⁻¹	B4
7.83 nM	0.00133 s⁻¹	169000 M⁻¹ s⁻¹	B5
1.67 nM	0.00027 s⁻¹	162000 M⁻¹ s⁻¹	B6

Target: T4, mouse FOLR1 (recombinant antigen) (mouse, UniProt P35846 25-232, limits assumed)
T4 construct: also called mFOLR1
Test: ELISA on mFOLR1

EC50	Binder
0.09 nM	B8
0.08 nM	B9
0.11 nM	B10

Target: T2, human DLL3 on cells (HEK293T cells …)
Test: cell-based or functional assay

HEK-DLL3 Internalization FOI	Binder
7.72 fold over negative control	B3
8.14 fold over negative control	B7
7.56 fold over negative control	B4
6.67 fold over negative control	B5
8.78 fold over negative control	B6

Target: T4, mouse FOLR1 (recombinant antigen)
T4 sequence (P35846 25-232 limits assumed): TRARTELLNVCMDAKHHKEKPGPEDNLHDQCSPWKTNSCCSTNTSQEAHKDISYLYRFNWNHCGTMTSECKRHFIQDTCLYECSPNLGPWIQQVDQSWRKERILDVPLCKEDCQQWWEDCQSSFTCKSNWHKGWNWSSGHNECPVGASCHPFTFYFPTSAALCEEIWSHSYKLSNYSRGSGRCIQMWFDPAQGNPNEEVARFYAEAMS
Test: BLI (Octet), construct captured on AHC biosensor, mFOLR1 as analyte

Kd	koff	kon	Binder
5.28 nM	0.00268 s⁻¹	508000 M⁻¹ s⁻¹	B8
6.59 nM	0.00311 s⁻¹	471000 M⁻¹ s⁻¹	B9
6 nM	0.00261 s⁻¹	435000 M⁻¹ s⁻¹	B10
